Drawing on the supplement of paper PMC10126150, this text covers switch fluorescence ratio for 120 sequences.

In the data set the test system is ATP. As to the kind of experiment: switch fluorescence ratio, 500 uM ATP over buffer (Cy3 cluster intensity, sum of 5 cycles each) (fold (ratio)); higher = stronger signal-on switching upon ATP binding; sequences stand for … in TCGTCGGCAGCGTCAGATGTGTATAAGAGACAGTTTTTTTTTTTTTTTTTTTTTTTTT…TC. The settings on record: aptamer strand: ATP DNA aptamer (quencher-CACCTGGGGGAGTATTGCGGAGGAAGG + anchor), 100 nM annealed; ATP concentration: 500 uM; one replicate. The method, boiled down:
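For every switch-domain sequence, the fluorescence ratio is the mean of per-cluster values, each being summed target-cycle Cy3 intensity over summed buffer-cycle Cy3 intensity. Clusters outside 100-1000 RFU were excluded. On a modified Illumina MiSeq flow-cell, the Cy3-labelled switching-strand clusters were annealed to 100 nM quencher-labelled ATP aptamer, imaged in selection buffer and then after 15 min with 500 uM ATP at 22 °C. Five such cycles were run, with NaOH stripping and re-annealing between them.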

Values marked as one replicate rest on one cluster of the flow cell; about a third of the high ones do not repeat.
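Also: ATP exposure 15 min at 22 °C before imaging.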

Regarding GATCCTAGCA, the switch fluorescence ratio is 1.06. With TGAACGTGTC the figure was 0.96. For the sequence CGAAGACGGA, the switch fluorescence ratio was 1.02.

For GGTGAAATAT, the switch fluorescence ratio was 1.01. With ATCACAGCGC the figure was 1.01. With GATGGTGAGG the figure was 0.996.

As for AAAATTTCAG, the switch fluorescence ratio stood at 0.979. With ATATCACAGA the figure was 0.995.

Consider CTGATTGATA, for which the switch fluorescence ratio was 0.999.

For AAGGAAAAGG, the switch fluorescence ratio worked out at 0.994.

As to GTTGCACCTG, the switch fluorescence ratio stood at 1.01. For ATCATGGCGA the value was 1.01. GGTGCAGTCC: the switch fluorescence ratio turned out to be 1.01. For GCCACAGGT the value was 1.7; for CGCATAAACC, 2.87; for GACCTGCAGA, 0.98. With GGATTATTTC the figure was 0.983. With TTTTCGGGAG the figure was 1.01. As for GACACCGAAG, the switch fluorescence ratio is 0.99. For TGGCTCAACG the value was 0.998. For TAGGTTGTCC the value was 1.02. As for TCACATAATA, the switch fluorescence ratio amounted to 1.06. For CGTCGGCCTG the value was 0.993; for GCACTTCAAC, 1.09; for GTCGAGGTTT, 1. For GCAGCTGGGC the value was 1.14; for GATCTAATGA, 1.04. With CTATTTGTCT the figure was 0.966. Consider AACAGGCCGA, for which the switch fluorescence ratio amounted to 1.02. For CCGGGAAGAA the value was 1.03; for GCGGGGTAGA, 1.05.

With TGCGTCCGTA, the switch fluorescence ratio was found to be 1.05. For GGGTAAACGA the value was 1.01; for GAAAACCAAT, 1.02; for TTGAGAAGGA, 0.976. For GGAATTTAGT the value was 1.03; for CCAAAGGGCG, 1.12; for GCATTATCCC, 1.53.

As to TGAGGATGAC, the switch fluorescence ratio was determined as 1.04. With CCTGAGCGAG the figure was 1.64; with GCGTTATGAC, 1.06; with GGGACATACA, 1.23.

As for ATGATTACGG, the switch fluorescence ratio was determined as 1.01.

Regarding GGGGCAGAGC, the switch fluorescence ratio turned out to be 0.999. With TTCTAGTAGA the figure was 1; with CGTAGTATCT, 0.969; with GGAGAAACGG, 1.01. With AGTGAAAGCT, the switch fluorescence ratio is 1.04. As for CGTAATACGT, the switch fluorescence ratio is 2.98. Regarding TGTATGATG, the switch fluorescence ratio was 1.01. As for CAGTGGTAG, the switch fluorescence ratio was determined as 0.986.

In the case of GTCTCCCTCT, the switch fluorescence ratio stood at 1.03. With CCCTCGTACG the figure was 1.08; with ACGTGGCAGA, 0.964; with ATGGTTAGG, 0.953. For GGCCGCCGGT the value was 1.03; for GATGCCCATT, 1.03; for CCTGGCCGTA, 1.03. For CCCGCAGTTT the value was 2.32; for TTATGCAGTA, 1.03; for TGGTCGGTGC, 0.998. Take CTAAAGATTC: the switch fluorescence ratio turned out to be 0.984.

As for GACAAAAGCC, the switch fluorescence ratio was 1.1. For AAGTCCGAAT the value was 0.983; for TCTAAAGGGG, 1.28.

For the sequence AAGTTCTTCG, the switch fluorescence ratio worked out at 0.984.

In the case of TGGTGCGCTA, the switch fluorescence ratio is 1.04. For TCGCATGGTT the value was 1.07; for AATTTTCTTA, 0.968; for CGCATAAGGT, 1.13. With GGAATGAGCG the figure was 0.976.

For AATTACGGGG, the switch fluorescence ratio was determined as 1.01. With AGGATGAAGT the figure was 0.951; with TTTAGCCGGC, 0.994. For GGGGAGCGCT the value was 1.05. For GTGTCTTAGT the value was 1.

As for GAAGGCCAAG, the switch fluorescence ratio is 0.999. Regarding AGCGGCCCTT, the switch fluorescence ratio was determined as 1.02.

For the sequence GCGCCACAGT, the switch fluorescence ratio came out at 1.07. For GGTGAATCCG the value was 1.04; for TGCGATTGAT, 1.01; for TACGGAGGTT, 0.965. For AAGGGGAAGA the value was 1.03. With GGCTAACACG the figure was 1.01; with AGTAGCCTTG, 1.02; with AAGACTTTGG, 0.948. Turning to CGCCATCCTG, the switch fluorescence ratio is 1.06. Turning to AAGTAAACGG, the switch fluorescence ratio is 1.07. Turning to CGGCTAGGGA, the switch fluorescence ratio worked out at 0.982. For AATGACAATA the value was 1.06.

Turning to GCTTAAAAGA, the switch fluorescence ratio came to 0.981. Consider CTCTCTAATG, for which the switch fluorescence ratio stood at 0.985. For GAGCAACGGG the value was 1.02.

Consider CTAGTTACTA, for which the switch fluorescence ratio turned out to be 1.02. With GTAAAACCGA the figure was 1.03; with GGCCATTATT, 0.994. For TCAACCCTGC the value was 1.07. With TAGGTTG the figure was 1.05; with TTGTCTTGTA, 1.04. Consider CGTGGGTAGC, for which the switch fluorescence ratio came out at 1.03. For TCTTCATCCC the value was 1.18; for GGCGCTGTCA, 0.998; for CAAGTCACCT, 1.18. With AGCTCGATCC the figure was 0.97; with AGAAAGCGGG, 0.992. For GAATTTTAGA the value was 1.06; for TGAGGAGTCG, 1.01; for CCAGGCAGGT, 1.11.

Turning to ATAGCATCGA, the switch fluorescence ratio is 1.02.

Turning to CTTCGCGAA, the switch fluorescence ratio was 1.91. With AGACCGGTTT the figure was 0.955. With GCTAGTAGGA the figure was 1; with TAGAGAGACT, 0.972. For GATAGGTCGG, the switch fluorescence ratio came to 0.989. With TTCGAGGGGA the figure was 0.964; with GAGTTGAGTG, 0.963. For GTAATGACGA the value was 1.04; for AGGCCCTAAA, 0.968; for CGGACACGTA, 1.01. On to GTGCTGGACA, for which the switch fluorescence ratio was 0.96.
